Measurements: the supplement of paper PMC11876631
Substitutions are numbered along the chain they refer to. Names and notes keep the numbering of the source. ± gives the standard deviation of the averaged measurements. Laboratory Escherichia coli strains with one amino-acid change in an essential protein, pooled on minimal glucose agar with carbenicillin or gentamicin at twice the control MIC (plus kanamycin and chloramphenicol for the plasmids), 48 h. Fold change of barcode share against drug-free plates; higher = less susceptible. Active = above 20 in both replicates (the paper's putatively resistant). '<' = one read or none on drug, '>' = one read or none on a drug-free plate. Shares are relative, so most strains fall below 1 when a few take over. Listed are strains with at least 15 reads on both drug-free plates, and hits; most hits rest on fewer reference reads. Replicate rank correlation about 0.5. Edits are read from barcodes.

B1: cysB V221D (protein)
chain: MKLQQLRYIVEVVNHNLNVSSTAEGLYTSQPGISKQVRMLEDELGIQIFSRSGKHLTQVTPAGQEIIRIAREVLSKVDAIKSVAGEHTWPDKGSLYIATTHTQARYALPNVIKGFIERYPRVSLHMHQGSPTQIADAVSKGNADFAIATEALHLYEDLVMLPCYHWNRAIVVTPDHPLAGKKAITIEELAQYPLVTYTFGFTGRSELDTAFNRAGLTPRIDFTATDADVIKTYVRLGLGVGVIASMAVDPVADPDLVRVDAHDIFSHSTTKIGFRRSTFLRSYMYDFIQRFAPHLTRDVVDAAVALRSNEEIEVMFKDIKLPEK
B2: cysB V221P (protein)
chain: B1 chain with D221P
B3: cysB F222A (protein)
chain: B1 chain with D221V, F222A
B4: cysB M315W (protein)
chain: B1 chain with D221V, M315W
B5: cysB M315Q (protein)
chain: B1 chain with D221V, M315Q
B6: cysB F316W (protein)
chain: B1 chain with D221V, F316W
B7: cysB F316Q (protein)
chain: B1 chain with D221V, F316Q
B8: cysB F316D (protein)
chain: B1 chain with D221V, F316D
B9: cysB F316P (protein)
chain: B1 chain with D221V, F316P
B10: cysC V29D (protein)
chain: MALHDENVVWHSHPVTVQQRELHHGHRGDVLWFTGLSGSGKSTVAGALEEALHKLGVSTYLLDGDNVRHGLCSDLGFSDADRKENIRRVGEVANLMVEAGLVVLTAFISPHRAERQMVRERVGEGRFIEVFVDTPLAICEARDPKGLYKKARAGELRNFTGIDSVYEAPESAEIHLNGEQLVTNLVQQLLDLLRQNDIIRS
B11: cysC L31Q (protein)
chain: B10 chain with D29V, L31Q
B12: cysC F33A (protein)
chain: B10 chain with D29V, F33A
B13: cysC V102A (protein)
chain: B10 chain with D29V, V102A
B14: cysC V102W (protein)
chain: B10 chain with D29V, V102W
B15: cysC V102D (protein)
chain: B10 chain with D29V, V102D
B16: cysC V102P (protein)
chain: B10 chain with D29V, V102P

target: Escherichia coli (laboratory strain); experiment: barcode share on antibiotic plates over drug-free plates; higher = less susceptible; details: antibiotic: carbenicillin; 2× MIC (3.1 µg/mL)
Method: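 A pool of E. coli strains, each edited to carry one amino-acid change in an essential protein, was grown for 48 h on minimal glucose agar with or without antibiotic; strain barcodes were sequenced; mean of two replicates.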

**Q.** With B1 as the protein, how does the “fold change of barcode share” value read?
**A.** 0.245 ± 0.13

**Q.** Which “fold change of barcode share” value does the source give for B2 here?
**A.** 0.23 ± 0.042

**Q.** For B3, which “fold change of barcode share” value is on record?
**A.** 0.194 ± 0.0041

**Q.** B4 was tested. Which “fold change of barcode share” value did it give?
**A.** 0.355 ± 0.19

**Q.** For B5, which “fold change of barcode share” value is on record?
**A.** 0.214 ± 0.061

**Q.** For B6, which “fold change of barcode share” value is on record?
**A.** 0.241 ± 0.2

**Q.** For B7, which “fold change of barcode share” value is on record?
**A.** 0.286 ± 0.0029

**Q.** For B8, which “fold change of barcode share” value is on record?
**A.** 0.128 ± 0.062

**Q.** Which “fold change of barcode share” value does the source give for B9 here?
**A.** 0.268 ± 0.019

**Q.** For B10, which “fold change of barcode share” value is on record?
**A.** 0.464 ± 0.18

**Q.** Which “fold change of barcode share” value does the source give for B11 here?
**A.** 0.454 ± 0.14

**Q.** Which “fold change of barcode share” value does the source give for B12 here?
**A.** > 39.5 [active]

**Q.** How did the “fold change of barcode share” value turn out when B13 was run?
**A.** 0.672 ± 0.29

**Q.** Which “fold change of barcode share” value does the source give for B14 here?
**A.** 1.06 ± 0.52

**Q.** With B15 as the protein, how does the “fold change of barcode share” value read?
**A.** 0.991 ± 0.17

**Q.** B16 was tested. Which “fold change of barcode share” value did it give?
**A.** 0.61 ± 0.3

same assay, conditions: antibiotic: gentamicin; 2× MIC (MIC 0.45 µg/mL)

**Q.** Which “fold change of barcode share” value does the source give for B4 here?
**A.** < 0.0148

**Q.** B5 was tested. Which “fold change of barcode share” value did it give?
**A.** < 0.0109

**Q.** B7 was tested. Which “fold change of barcode share” value did it give?
**A.** < 0.0175

**Q.** For B10, which “fold change of barcode share” value is on record?
**A.** < 0.012

**Q.** With B11 as the protein, how does the “fold change of barcode share” value read?
**A.** 0.00813 ± 0.0063

**Q.** B13 was tested. Which “fold change of barcode share” value did it give?
**A.** < 0.00843

**Q.** B15 was tested. Which “fold change of barcode share” value did it give?
**A.** 0.0235 ± 0.026

**Q.** Which “fold change of barcode share” value does the source give for B16 here?
**A.** 0.0123 ± 0.0089
